# Data from the supplement of paper PMC9446081.
# In all, about 39,000 compounds went through this assay and about 220 (0.56%) showed activity. Some of the results follow.
# System: Escherichia coli K-12 BW25113
# Assay: relative growth (OD600 normalised to plate interquartile mean) (fraction); higher = less growth inhibition, active = 0.2 or less
# Details: 50 µM; LB; incubation time: overnight (16-24 h)
# 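Also: static incubation at 37 °C against the wild-type strain, values averaged over two biological replicates.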
row,Structure (SMILES),relative growth
1,COc1cccc(S(=O)(=O)N[C@H]2C=C[C@H](CC(=O)NC3CCC3)O[C@@H]2CO)c1,inactive: 0.98
2,CN1C(C)(C)CCCC1(C)C.O=C(O)C(O)C(O)C(=O)O,inactive: 0.993
3,COCC(=O)N1C[C@@H]2OCCN(c3ccc(C)nn3)[C@H]2C1,inactive: 0.994
4,COc1ccc(S(=O)(=O)N(C)C[C@H]2Oc3ccc(NS(=O)(=O)c4cn(C)cn4)cc3C(=O)N([C@@H](C)CO)C[C@H]2C)cc1,inactive: 1.06
5,NCC[C@@H]1CC[C@H](NC(=O)c2ccccc2F)[C@@H](CO)O1,inactive: 1.01
6,CSC(=N)NCCC[C@@H](N)C(=O)O,inactive: 0.977
7,C[C@@H]1CN([C@@H](C)CO)C(=O)c2cccc(NC(=O)c3cnccn3)c2O[C@H]1CN(C)Cc1ccccc1,inactive: 1.01
8,COCC(=O)N(C)C[C@@H]1Oc2cc(-c3ccc(OC)cc3)ccc2S(=O)(=O)N([C@@H](C)CO)C[C@@H]1C,inactive: 0.997
9,COc1ccc(S(=O)(=O)N(C)C[C@H]2OCCCC[C@@H](C)Oc3ccc(NC(=O)c4ccccc4)cc3C(=O)N([C@H](C)CO)C[C@@H]2C)cc1,inactive: 1.08
10,Oc1ccc(Cl)c2c1CCC2,inactive: 0.835
11,Cc1cc(C(=O)Nc2cccc3c2O[C@@H](CN(C)Cc2ccccc2)[C@H](C)CN([C@H](C)CO)C3=O)n(C)n1,inactive: 1.01
12,COc1ccc(S(=O)(=O)N[C@H]2CC[C@H](CC(=O)N3CCN(c4ccccc4)CC3)O[C@H]2CO)cc1,inactive: 1.01
13,C[C@@H]1CCCCO[C@@H](CN(C)C(=O)Nc2ccc(C(F)(F)F)cc2)[C@H](C)CN([C@@H](C)CO)C(=O)c2cc(NC(=O)Nc3ccc4c(c3)OCO4)ccc2O1,inactive: 1.04
14,C[C@@H]1CN([C@@H](C)CO)C(=O)c2cc(C#CC3CCCC3)cnc2O[C@H]1CN(C)S(=O)(=O)c1cccc(F)c1,inactive: 0.998
15,C[C@@H]1CN([C@H](C)CO)C(=O)Cc2cc(NC(=O)NC3CCCCC3)ccc2O[C@@H]1CN(C)S(C)(=O)=O,inactive: 0.981
16,CO[C@@H]1CN(C)C(=O)c2cc(NC(=O)c3cnccn3)ccc2OC[C@@H](C)N(C(=O)c2cnccn2)C[C@H]1C,inactive: 1
17,C[C@@H]1CN([C@H](C)CO)C(=O)Cc2cc(NC(=O)C3CCCCC3)ccc2O[C@H]1CN(C)Cc1ccc(Cl)c(Cl)c1,inactive: 1.01
18,CC(C)NC(=O)N(C)C[C@H]1OCCCC[C@@H](C)Oc2ccc(NS(=O)(=O)c3cn(C)cn3)cc2C(=O)N([C@H](C)CO)C[C@@H]1C,inactive: 0.997
19,C=C(O)C(=O)OCC,inactive: 1
20,C[C@@H]1CN([C@@H](C)CO)C(=O)c2cc(-c3ccncc3)cnc2O[C@@H]1CN(C)S(=O)(=O)c1ccc(F)cc1,inactive: 0.998
21,COc1ccc(OC)c(S(=O)(=O)N2[C@@H]3CC[C@@H](C3)[C@H]2c2nc3cccc(OCc4ccccc4)c3[nH]2)c1,inactive: 1.01

row,Structure (SMILES),relative growth
1,C[C@@H]1CN([C@@H](C)CO)C(=O)c2cc(NC(=O)Nc3ccc4c(c3)OCO4)ccc2O[C@@H](C)CCCCO[C@H]1CN(C)Cc1ccc(Cl)c(Cl)c1,inactive: 1.02
2,C[C@@H]1CN([C@@H](C)CO)C(=O)c2ccccc2-c2ccccc2CO[C@@H]1CN(C)C(=O)N[C@H](C)c1ccccc1,inactive: 0.986
3,C[C@@H]1CN([C@H](C)CO)C(=O)c2cccc(NC(=O)Nc3ccc(C(F)(F)F)cc3)c2O[C@H]1CN(C)Cc1ccc2c(c1)OCO2,inactive: 0.761
4,Cn1cc(-c2ccno2)c(C(=O)O)n1,inactive: 0.983
5,C[C@H]1CN([C@@H](C)CO)C(=O)c2cccc(NC(=O)C3CC3)c2O[C@@H]1CN(C)Cc1ccc(C(=O)O)cc1,inactive: 0.996
6,C[C@@]1(c2cccs2)CC(c2cccs2)=Nc2ccccc2N1,inactive: 1.03
7,Cc1ccc(S(=O)(=O)Nc2ccc3c(c2)C(=O)N([C@@H](C)CO)C[C@@H](C)[C@H](CN(C)C(=O)Nc2ccccc2)OCCCC[C@@H](C)O3)cc1,inactive: 1.02
8,O=C(C[C@@H]1CC=CC[C@@H](NC(=O)OCC2c3ccccc3-c3ccccc32)C(=O)OC[C@@H](Cc2ccccc2)NC1=O)N[C@@H](CO)Cc1ccccc1,inactive: 1.01
9,COCC(=O)Nc1ccc2c(c1)C(=O)N(C)[C@@H]1CC[C@H](CC(=O)NCc3ccccc3Cl)O[C@H]1CO2,inactive: 0.997
10,COc1ccc(NC(=O)N(C)C[C@H]2Oc3ccc(NC(=O)CCN4CCOCC4)cc3CC(=O)N([C@@H](C)CO)C[C@H]2C)cc1,inactive: 1.01
11,COc1ccc(COC[C@]23N=C4SCc5ccccc5C(=O)N4[C@H](c4ccccc4O2)[C@H]3COC(=O)c2ccccc2)cc1,inactive: 1.06
12,C[C@@H]1CN([C@H](C)CO)C(=O)c2cc(NS(=O)(=O)c3cn(C)cn3)ccc2O[C@@H](C)CCCCO[C@@H]1CN(C)C,inactive: 0.966
13,C[C@@H]1CCCCO[C@@H](CN(C)Cc2ccc(Cl)c(Cl)c2)[C@@H](C)CN([C@H](C)CO)C(=O)c2cc(NS(=O)(=O)c3ccccc3)ccc2O1,inactive: 1.02
14,COCC(=O)N1C[C@@H](C)[C@H](OC)CN(C)C(=O)c2cc(NC(=O)Nc3cccc(F)c3)ccc2OC[C@@H]1C,inactive: 0.999
15,C[C@H](CO)N1C[C@H](C)[C@@H](CN(C)Cc2ccc(Cl)c(Cl)c2)OCc2ccccc2-c2c(n(C)c3ccccc23)C1=O,inactive: 1.01
16,C[C@@H]1CCCCO[C@H](CN(C)C(=O)CCCN(C)C)[C@@H](C)CN([C@H](C)CO)C(=O)c2cc(N(C)C)ccc2O1,inactive: 0.971
17,COc1ccc(Cc2cnc(N)nc2N)cc1OC,active: 0.0502
18,Cc1ccc(S(=O)(=O)N(C)C[C@H]2Oc3ccc(NS(=O)(=O)c4cccs4)cc3C(=O)N([C@H](C)CO)C[C@H]2C)cc1,inactive: 1.03
19,C[C@@H]1CN([C@@H](C)CO)C(=O)c2cc(NC(=O)CCC(F)(F)F)ccc2O[C@@H](C)CCCCO[C@@H]1CN(C)C(=O)Nc1ccc2c(c1)OCO2,inactive: 0.983
20,O=C(C[C@@H]1CC[C@H]2[C@@H](COC[C@H](O)CN2C(=O)Nc2ccc(F)cc2)O1)NCCCN1CCOCC1,inactive: 0.975
21,C[C@H]1CN([C@@H](C)CO)C(=O)Cc2cc(NS(=O)(=O)c3cn(C)cn3)ccc2O[C@H]1CN(C)S(=O)(=O)c1ccccc1,inactive: 1.02

row,Structure (SMILES),relative growth
1,C[C@@H]1CCCCO[C@H](CN(C)C(=O)Nc2ccccc2)[C@@H](C)CN([C@H](C)CO)C(=O)c2cc(NC(=O)CCC(F)(F)F)ccc2O1,inactive: 0.974
2,O=C(C[C@H]1CC[C@@H]2[C@H](COC[C@@H](O)CN2S(=O)(=O)c2ccccc2)O1)NCCN1CCCC1,inactive: 0.999
3,C[C@H]1CN([C@@H](C)CO)C(=O)Cc2cc(NC(=O)CCC(F)(F)F)ccc2O[C@H]1CN(C)S(=O)(=O)c1cn(C)cn1,inactive: 1
4,COc1ccc(NC(=O)N(C)C[C@@H]2Oc3ccc(NC(=O)CCCN(C)C)cc3C(=O)N([C@@H](C)CO)C[C@H]2C)cc1,inactive: 0.986
5,CC=C(C)C(=O)O[C@H]1[C@H](OC(C)=O)[C@]2(CO)[C@H](O)C[C@]3(C)C(=CC[C@@H]4[C@@]5(C)CC[C@H](O[C@@H]6O[C@H](C(=O)O)[C@@H](O[C@@H]7O[C@H](CO)[C@@H](O)[C@H](O)[C@H]7O)[C@H](O)[C@H]6O[C@@H]6O[C@H](CO)[C@@H](O)[C@H](O)[C@H]6O)[C@](C)(CO)[C@@H]5CC[C@]43C)[C@@H]2CC1(C)C,inactive: 0.783
6,CCc1nnc(NC(=O)c2nnc[nH]2)s1,inactive: 1.01
7,C[C@@H]1CCCCO[C@@H](CN(C)Cc2ccc3c(c2)OCO3)[C@@H](C)CN([C@@H](C)CO)C(=O)c2cc(NS(=O)(=O)c3cccs3)ccc2O1,inactive: 0.929
8,O=C(C[C@@H]1C[C@H]2c3cc(NC(=O)Cc4ccncc4)ccc3O[C@H]2[C@H](CO)O1)NCCN1CCCCC1,inactive: 1.02
9,O=C(NCCN1CCCC1)[C@@H]1[C@@H](CO)[C@@H]2Cn3c(cccc3=O)[C@H]1N2C(=O)NC1CCCC1,inactive: 0.936
10,COc1cccc(NC(=O)N[C@H]2CC[C@H](CC(=O)N3CCN(C)CC3)O[C@@H]2CO)c1,inactive: 0.994
11,CCN1[C@H](C(=O)NCCc2cn(C)cn2)[C@@H](CO)[C@@H]2Cn3c(ccc(-c4ccncc4)c3=O)[C@@H]21,inactive: 0.97
12,Cc1noc(C)c1NC(=O)N(C)C[C@H]1OCCCC[C@@H](C)Oc2ccc(NC(=O)Nc3ccc(F)cc3)cc2C(=O)N([C@H](C)CO)C[C@@H]1C,inactive: 0.986
13,C[C@@H]1CN([C@@H](C)CO)S(=O)(=O)c2ccc(Br)cc2O[C@H]1CN(C)CC1CCOCC1,inactive: 1
14,CC(=O)N1C(=O)N(C(C)=O)[C@@H](O)[C@H]1O,inactive: 1.01
15,O=C(CN1CCOCC1)N[C@@H]1CC[C@@H](CCn2cc(C3CC3)nn2)O[C@@H]1CO,inactive: 0.979
16,C[C@H]1CN([C@@H](C)CO)C(=O)c2cc(C#CCN(C)C)cnc2O[C@@H]1CN(C)C(=O)c1ccc2c(c1)OCO2,inactive: 0.968
17,CNC(=O)N1CCC(C(N)=O)CC1,inactive: 1.01
18,C[C@@H]1CN([C@@H](C)CO)C(=O)c2cccc(NC(=O)c3ccc(-c4nccs4)cc3)c2O[C@H]1CN(C)C(=O)Nc1ccc(C(F)(F)F)cc1,inactive: 0.949
19,CCCNC(=O)N(C)C[C@H]1Oc2cc(-c3ccccc3F)ccc2S(=O)(=O)N([C@H](C)CO)C[C@@H]1C,inactive: 1
